The record followed here is PubChem BioAssay AID1159614 (National Center for Advancing Translational Sciences (NCATS), 2016).

The campaign covered roughly 45,000 compounds. About 65 (0.1%) were called active. Calls come from the whole dose curve; as a rule, active = well fitted activation curve with a large enough effect; inconclusive = small, poorly fitted or top-dose-only effect; inactive = no such curve, though single readings can be large or run the other way. The list shows a part of the results.

UniProt P54803, sequence (P54803 whole entry, looked up): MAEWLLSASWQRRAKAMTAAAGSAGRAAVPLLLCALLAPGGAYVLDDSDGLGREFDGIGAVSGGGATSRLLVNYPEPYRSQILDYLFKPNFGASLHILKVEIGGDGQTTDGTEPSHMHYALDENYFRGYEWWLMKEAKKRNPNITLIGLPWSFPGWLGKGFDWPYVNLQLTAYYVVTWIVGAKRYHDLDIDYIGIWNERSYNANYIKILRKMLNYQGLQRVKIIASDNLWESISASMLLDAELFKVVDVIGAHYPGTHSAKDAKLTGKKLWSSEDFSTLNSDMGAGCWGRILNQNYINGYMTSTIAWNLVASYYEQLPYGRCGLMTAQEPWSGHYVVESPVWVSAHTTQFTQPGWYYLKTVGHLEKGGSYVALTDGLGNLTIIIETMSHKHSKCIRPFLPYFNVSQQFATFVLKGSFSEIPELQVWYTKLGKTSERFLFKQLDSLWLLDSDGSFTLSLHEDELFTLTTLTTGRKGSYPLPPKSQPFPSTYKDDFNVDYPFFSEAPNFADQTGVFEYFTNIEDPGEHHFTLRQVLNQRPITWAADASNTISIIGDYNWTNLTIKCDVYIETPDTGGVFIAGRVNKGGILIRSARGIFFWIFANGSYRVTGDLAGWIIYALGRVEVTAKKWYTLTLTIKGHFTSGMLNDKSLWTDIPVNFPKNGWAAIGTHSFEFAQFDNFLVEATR

This test has as its target Galactocerebrosidase (Homo sapiens) (UniProt P54803). Description: A Novel Cell-Based Assay to Identify Small Molecules for B -Galactocerebrosidase. Note: 0% is about no effect; nearly all actives have a fitted effect of over 65% in size. As to conditions: 145M-Twi-hGALC-G270D cells (Twitcher mouse brain line with human GALC G270D), HMU-beta-Gal fluorescence, 48 h; series mostly up to 57.5 µM; activation: at the top concentration. An outline of the steps:
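Brain-derived Twitcher mouse 145M-Twi cells stably expressing human GALC-G270D or wild-type GALC, treated live, then residual GALC activity read by fluorescence of HMU-b-Gal substrate (0.1 mM final) in citrate-phosphate buffer pH 5.2 with sodium taurocholate. Signal increase indicates enhancement.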
As to `CCCCN(C)CCNC(=O)c1nn(-c2ccc(OC)c(Cl)c2)c(=O)c2c1c1ccccc1n2C`, the “activation” value is inactive: -16.5%.

Take `Cc1nn(-c2ccccc2)c2sc(C(=O)Nc3ccc(Cl)cc3Cl)cc12`: the “activation” value was inactive: -15.9%.

Regarding `Cc1cc(C)c(S(=O)(=O)NCc2ccc3c(c2)CCN3C(=O)c2ccccc2)c(C)c1`, the “activation” value is inactive: -10.7%. With `COC(=O)C1=C(CS(=O)(=O)c2ccc(C)cc2C)NC(=O)NC1c1ccc(C)cc1` (stereo not drawn), the “activation” value was inactive: 0.0583%.

With `CCN(CC)c1ccc2cc(-c3nnc(Nc4ccc(C)cc4)s3)c(=O)oc2c1`, the “activation” value was inactive: -21.5%. Then `Cc1cc2c(cc1S(=O)(=O)N(CCN(C)C)Cc1ccccc1)OCC(=O)N2`, with inactive: 3.46%; and `COC(=O)c1ccc(NC(=O)c2c(NCc3cccc(F)c3)sc3c2CCCC3)cc1`, with inactive: -10.6%; and `CCC(Oc1ccccc1F)C(=O)Nc1cc(-c2ccccc2)no1` (stereo not drawn), with inactive: -10.9%. The result for `COc1ccccc1C(c1c(O)cc(C)n(Cc2ccco2)c1=O)N1CCCCC1` (stereo not drawn) reads inactive: -18.8%; that for `Cc1cccc(N2CCN(S(=O)(=O)c3cc(C(=O)Nc4ccc(Oc5ccccc5)cc4)ccc3F)CC2C)c1` (stereo not drawn), inactive: -16.3%. Then `CCOC(=O)C1CCCN(S(=O)(=O)c2cc(-c3onc(C)c3C)ccc2OC)C1` (stereo not drawn), with inactive: -10.6%. Turning to `CCc1c(-c2ccccc2)nc2ccccc2c1C(=O)NC(C)c1ccccc1` (stereo not drawn), the “activation” value was inactive: 4.92%. Turning to `NC(=O)n1c(O)c(C(=O)c2cccs2)c2cc(Cl)ccc21`, the “activation” value is inactive: -11.9%. With `CCOc1ccccc1NC(=O)c1nc(S(=O)(=O)Cc2cccc(C)c2)ncc1Cl`, the “activation” value is inactive: 10.3%. `CCOc1ccccc1NC(=O)CSc1c2c(nc3ccc(Cl)cc13)CCCC2`: the “activation” value was inactive: -9.81%. In the case of `COc1ccc(S(=O)(=O)N(CC(=O)NCCSc2ccc(C)cc2)c2ccc(C)cc2)cc1`, the “activation” value was inactive: -8.15%. In the case of `CCCN(c1ccccc1F)S(=O)(=O)c1ccc2c(c1)C(C)(C)C(=O)N2C`, the “activation” value was inactive: -13.3%. The result for `CC(=O)N1CCC(N(Cc2ccc(C)o2)C(=O)Nc2ccccc2F)CC1` reads inactive: -10.5%. `Cc1nc2c(c(C)c1CCC(=O)NCc1ccc(F)cc1)c(=O)n(C)c(=O)n2C`: the “activation” value was inactive: -8.82%. With `CC1CCc2onc(C(=O)Nc3ccc(Cl)cc3)c2C1` (stereo not drawn), the “activation” value is inactive: -9.22%.

Consider `COc1ccc(-c2noc(CNC(=O)c3cc(OC)c(OC)c(OC)c3)n2)cc1`, for which the “activation” value was inactive: -5.59%. Then `Cc1[nH]c2ccc(C(=O)NCCCN3CCCCC3)cc2c1C`, with inactive: 1.04%. Then `COc1cccc(-c2nc(-c3ccc(Br)o3)no2)c1`, with inactive: -17.1%; and `O=C(NCc1ccccc1)c1cc(Sc2cccc(Cl)c2)nc2ccccc12`, with inactive: -12.1%. The result for `CCOc1c(Br)cc(C2C=C(C(=O)O)Nc3ncnn32)cc1OC` (stereo not drawn) reads inactive: -14%. Regarding `CC(=O)N1c2ccccc2C(=O)C1N1CCN(c2ccc(Cl)cc2)CC1` (stereo not drawn), the “activation” value is inactive: -10.5%. The result for `CCOC(=O)c1cc(OC(=O)c2ccccc2F)n(-c2ccccc2)n1` reads inactive: -12.7%; that for `CCOc1ccccc1NC(=O)Cn1nnc(C(=O)NCc2cccs2)c1N`, inactive: -16.8%.
